Results published in article PMC4336329 (PLoS ONE, 2015).
In all, about 310,000 compounds went through this assay and about 2,200 (0.71%) showed an effect of 50% or more. The effect is printed as a negative number. Some of the results follow.

Molecular target: human ether-à-go-go-related gene (hERG) potassium channel (human, UniProt Q12809)
Assay: primary screen, population patch clamp on CHO cells stably expressing hERG

human ether-à-go-go-related gene (hERG) potassium channel, sequence (Q12809 whole entry, looked up): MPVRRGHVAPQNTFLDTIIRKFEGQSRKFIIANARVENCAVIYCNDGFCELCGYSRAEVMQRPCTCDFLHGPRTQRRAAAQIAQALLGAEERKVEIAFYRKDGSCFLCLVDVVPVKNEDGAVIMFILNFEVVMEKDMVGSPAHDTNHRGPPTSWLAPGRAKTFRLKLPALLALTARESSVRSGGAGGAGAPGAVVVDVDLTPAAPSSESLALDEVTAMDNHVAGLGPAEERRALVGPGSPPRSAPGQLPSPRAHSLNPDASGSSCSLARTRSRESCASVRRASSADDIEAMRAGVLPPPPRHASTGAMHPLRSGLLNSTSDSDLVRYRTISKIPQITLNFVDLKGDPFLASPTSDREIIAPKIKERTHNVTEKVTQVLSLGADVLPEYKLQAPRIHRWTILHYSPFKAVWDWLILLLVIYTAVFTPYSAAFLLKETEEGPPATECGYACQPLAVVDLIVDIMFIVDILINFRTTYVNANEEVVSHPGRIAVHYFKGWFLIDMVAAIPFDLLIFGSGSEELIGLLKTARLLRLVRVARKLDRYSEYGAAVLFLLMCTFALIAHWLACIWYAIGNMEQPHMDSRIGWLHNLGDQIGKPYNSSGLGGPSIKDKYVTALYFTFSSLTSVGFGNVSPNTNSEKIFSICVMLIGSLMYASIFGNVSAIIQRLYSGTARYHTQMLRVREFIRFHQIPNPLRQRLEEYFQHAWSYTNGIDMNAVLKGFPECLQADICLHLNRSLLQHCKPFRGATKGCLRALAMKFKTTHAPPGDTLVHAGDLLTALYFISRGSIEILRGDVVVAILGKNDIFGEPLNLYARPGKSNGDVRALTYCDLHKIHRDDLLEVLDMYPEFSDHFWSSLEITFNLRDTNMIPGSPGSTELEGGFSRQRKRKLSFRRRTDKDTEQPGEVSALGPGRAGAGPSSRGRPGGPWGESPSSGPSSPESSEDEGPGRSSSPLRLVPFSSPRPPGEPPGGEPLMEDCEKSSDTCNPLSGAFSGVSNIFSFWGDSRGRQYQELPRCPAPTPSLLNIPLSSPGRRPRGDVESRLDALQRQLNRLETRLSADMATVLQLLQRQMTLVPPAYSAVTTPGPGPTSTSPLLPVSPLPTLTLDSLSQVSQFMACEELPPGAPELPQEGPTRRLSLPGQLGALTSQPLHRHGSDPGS

SMILES	hERG current change (%, negative = inhibition) at 1uM
Cc1cc(O)ccc1Nc1nc(-c2cccs2)cs1	5.07%
Cc1cnc2c(C(=O)O)cnn2c1	14.7%
CC(C)CC(=O)N1CCC(O)(CS(=O)(=O)c2ccc(Cl)c(Cl)c2)CC1	2.83%
O=S(=O)(c1cccc(-c2n[nH]c(=S)o2)c1)N1CCOCC1	13.7%
COCCCNC(=O)Cn1ncc2ccsc2c1=O	11.1%
CC1CCCCN1C(=O)Nc1ccccc1Cl (stereo not shown)	4.9%
CCN1C(=O)[C@@H]2[C@@H](c3ccc(-c4ccc5c(c4)OCO5)c(OC)c3)N3CCC[C@@]3(C(=O)OC)[C@@H]2C1=O.O=C(O)C(F)(F)F	-5.04%
Cl.O=C(NC1=NCCS1)c1cc(-c2cccnc2)nc2ccccc12	6.83%
COc1cc2c(c(OC)c1OC)-c1ccc(N(C)CC(OC)OC)c(=O)cc1[C@@H](NC(C)=O)CC2	13.1%
O=C(OC1CCOC1=O)c1ccc(Cl)c(S(=O)(=O)N2CCOCC2)c1 (stereo not shown)	4.1%
COc1ccccc1N1CCN(S(=O)(=O)c2ccc(-c3ccc(=O)[nH]n3)o2)CC1	11.5%
Cc1ccnc(SCC(=O)c2cc3ccccc3o2)n1	-0.772%
O=C(NCC(=O)N(Cc1ccccc1)C(C(=O)NCC1CCCO1)c1ccccc1)c1cccs1 (stereo not shown)	10.7%
Cn1c(=O)c2c(nc(N/N=C/c3cccs3)n2Cc2ccc(Br)cc2)n(C)c1=O	5.98%
COC(=O)C1=C(c2ccc(F)cc2OCc2ccccc2)C[C@@H]2CC[C@H]1N2C(=O)NCc1ccccc1OC	10.8%
O=C(c1ccc2c(c1)OCO2)C1CCCN(Cc2cccn2-c2cccnc2)C1 (stereo not shown)	-14.6%
CCCOc1ccc(C2NC(=S)NC(c3ccccc3)=C2C(=O)Nc2ccc(C)cc2)cc1OC (stereo not shown)	11.1%
Cl.c1ccc2c(CN3CCCCCC3)c[nH]c2c1	-1.63%
Cn1c(=O)c2c(ncn2CC(=O)N2CCN(c3cccc(Cl)c3)CC2)n(C)c1=O	-43.9%
O=S(=O)(c1ccc(F)cc1)N1CCN(Cc2nnc(-c3ccccc3)o2)CC1	-5%
Cc1ccc(OCC(=O)NNC(=O)c2cc(C)[nH]n2)cc1	17.2%
Cc1cc2cc(CCNC(=O)c3ccc(S(=O)(=O)N4CCCC4)cc3)c(=O)[nH]c2cc1C	2.54%

SMILES	hERG current change (%, negative = inhibition) at 1uM
NS(=O)(=O)c1cccc(NC(=O)c2cccc3c(Br)cccc23)c1	25.3%
Cc1ccc2nc(C)c(Cl)c(=O)n2c1	10.3%
O=C(CCCc1ccccc1)NCc1ccc(F)cc1	5.77%
O=C(Nc1ccc(N2CCN(C(=O)c3ccccc3)CC2)c(Cl)c1)c1ncn[nH]1	2.09%
COCCNC(=O)c1cc2c3ccccc3n(C)c2s1	14.2%
CCOc1ccc(-n2c(C)nnc2SCC(=O)N(CC)CC)cc1	7.32%
O=C(O)CSc1ncnc2sc(-c3ccccc3)cc12	4.07%
CCOc1ccc(-c2csc(N)c2C(=O)OC)cc1	11.4%
CC(C)CCN1CCN(Cc2nc3ccccc3s2)CC1CCO (stereo not shown)	-8.09%
CCC(=O)N1CCN(c2ccc(NC(=O)c3c(F)c(F)c(OC)c(F)c3F)cc2)CC1	2.37%
O=C(c1ccc2c(c1)OCO2)C1CCCN(Cc2cccc(C(F)(F)F)c2)C1 (stereo not shown)	-0.222%
CN(C(=O)C1CCCN(S(=O)(=O)c2cccc([N+](=O)[O-])c2)C1)C1CCS(=O)(=O)C1 (stereo not shown)	5.6%
COc1ccc(C2C3=C(CC(C)(C)CC3=O)N(CCN3CCOCC3)C3=C2C(=O)CC(C)(C)C3)cc1	7.6%
CCC(C)(C)NC(=O)C(c1ccncc1)N(C(=O)Cn1nnc2ccccc21)c1cc2c(cc1C(C)=O)OCO2 (stereo not shown)	3.8%
CCOCCCn1c(SCC(=O)Nc2cc(OC)ccc2OC)nc2ccccc2c1=O	-13.7%
C=CCN1C(=O)c2ccc(C(=O)N3CCN(S(=O)(=O)c4cccc(F)c4)CC3)cc2C1=O	13.7%
CC(NC(=O)Cc1ccccc1)c1ccc(F)cc1 (stereo not shown)	26%
COc1ccc(C(=O)NNC(=O)CSc2ccccc2)cc1	11%
CCCc1cc(=O)oc2c(CN3CCN(C)CC3)c(O)c(Cl)cc12	6.53%
Cc1cc(=O)n2[nH]c(Nc3cccc(Cl)c3)nc2n1	17.6%
O=C(Cc1ccc(-c2ccccc2)cc1)N1CCOCC1	7.08%
